Part of at least one peptide drawing is inferred or uncertain, most often the ends.
Test: Rat renal blood flow studies
Assay type: in vivo, Sprague Dawley rats
Settings: 1 mg/kg intravenously; for % change in RBF over baseline: anesthetized male Sprague Dawley rats, renal blood flow recorded for 45 min; for effect on renal blood flow (in words): rats, 1 mg/kg

| SMILES | % change in RBF over baseline | effect on renal blood flow (in words) | effect on renal blood flow (in words) (listed as AQ1 relaxin) |
| --- | --- | --- | --- |
| CC[C@H](C)[C@@H]1NC(=O)[C@H](C)NC(=O)[C@H]([C@@H](C)CC)NC(=O)[C@H](CCC(N)=O)NC(=O)[C@H](C)NC(=O)[C@H](CCCNC(=N)N)NC(=O)[C@H](C(C)C)NC(=O)[C@H](CC(C)C)NC(=O)[C@H](CCC(=O)O)NC(=O)[C@H](CCCNC(=N)N)NC(=O)CNC(=O)[C@@H](NC(=O)[C@H](CC(C)C)NC(=O)[C@H](CCCCN)NC(=O)[C@@H](NC(=O)[C@@H](NC(=O)[C@H](CCC(=O)O)NC(=O)[C@H](CCC(=O)O)NC(=O)[C@H](CCSC)NC(=O)[C@H](Cc2c[nH]c3ccccc23)NC(=O)[C@H](CO)NC(=O)[C@H](C)N)C(C)C)[C@@H](C)CC)CSSC[C@@H]2NC(=O)[C@@H](NC(=O)[C@H](CCCCN)NC(=O)[C@H](CC(N)=O)NC(=O)[C@H](C)NC(=O)[C@H](CC(C)C)NC(=O)[C@H](C)NC(=O)[C@H](CO)NC(=O)[C@H](Cc3ccc(O)cc3)NC(=O)[C@H](CC(C)C)NC(=O)[C@@H](N)Cc3ccc(/C(C)=N/OCCNC(=O)CN(C)C(=O)CN(C)C(=O)CN(C)C(=O)[C@H](CCC(=O)O)NC(=O)[C@H](CCC(=O)O)NC(=O)CC[C@H](NC(=O)CCCCCCCCCCCCC(=O)O)C(=O)O)cc3)CSSC[C@H](NC(=O)CNC(=O)[C@H](C(C)C)NC(=O)[C@H](Cc3c[nH]cn3)NC2=O)C(=O)N[C@@H]([C@@H](C)O)C(=O)N[C@@H](CCCCN)C(=O)N[C@@H](CCCNC(=N)N)C(=O)N[C@@H](CO)C(=O)N[C@@H](CC(C)C)C(=O)N[C@@H](C)C(=O)N[C@@H](CCCNC(=N)N)C(=O)N[C@@H](Cc2ccccc2)C(=O)N[C@H](C(=O)O)CSSC[C@@H](C(=O)NCC(=O)N[C@@H](CCSC)C(=O)N[C@@H](CO)C(=O)N[C@H](C(=O)N[C@@H](Cc2c[nH]c3ccccc23)C(=O)N[C@@H](CO)C(=O)O)[C@@H](C)O)NC1=O [AQ1-Sar-Sar-Sar-Glu-Glu-Glu^γ-C13-COOH] | +5% | – | – |
| CC[C@H](C)[C@@H]1NC(=O)[C@H](C)NC(=O)[C@H]([C@@H](C)CC)NC(=O)[C@H](CCC(N)=O)NC(=O)[C@H](C)NC(=O)[C@H](CCCNC(=N)N)NC(=O)[C@H](C(C)C)NC(=O)[C@H](CC(C)C)NC(=O)[C@H](CCC(=O)O)NC(=O)[C@H](CCCNC(=N)N)NC(=O)CNC(=O)[C@@H](NC(=O)[C@H](CC(C)C)NC(=O)[C@H](CCCCN)NC(=O)[C@@H](NC(=O)[C@@H](NC(=O)[C@H](CCC(=O)O)NC(=O)[C@H](CCC(=O)O)NC(=O)[C@H](CCSC)NC(=O)[C@H](Cc2c[nH]c3ccccc23)NC(=O)[C@H](CO)NC(=O)[C@H](C)N)C(C)C)[C@@H](C)CC)CSSC[C@@H]2NC(=O)[C@@H](NC(=O)[C@H](CCCCN)NC(=O)[C@H](CC(N)=O)NC(=O)[C@H](C)NC(=O)[C@H](CC(C)C)NC(=O)[C@H](C)NC(=O)[C@H](CO)NC(=O)[C@H](Cc3ccc(O)cc3)NC(=O)[C@H](CC(C)C)NC(=O)[C@@H](N)Cc3ccc(/C(C)=N/OCCNC(=O)CN(C)C(=O)CN(C)C(=O)CN(C)C(=O)CN(C)C(=O)[C@H](CO)NC(=O)CC[C@H](NC(=O)CCCCCCCCCCCCC(=O)O)C(=O)O)cc3)CSSC[C@H](NC(=O)CNC(=O)[C@H](C(C)C)NC(=O)[C@H](Cc3c[nH]cn3)NC2=O)C(=O)N[C@@H]([C@@H](C)O)C(=O)N[C@@H](CCCCN)C(=O)N[C@@H](CCCNC(=N)N)C(=O)N[C@@H](CO)C(=O)N[C@@H](CC(C)C)C(=O)N[C@@H](C)C(=O)N[C@@H](CCCNC(=N)N)C(=O)N[C@@H](Cc2ccccc2)C(=O)N[C@H](C(=O)O)CSSC[C@@H](C(=O)NCC(=O)N[C@@H](CCSC)C(=O)N[C@@H](CO)C(=O)N[C@H](C(=O)N[C@@H](Cc2c[nH]c3ccccc23)C(=O)N[C@@H](CO)C(=O)O)[C@@H](C)O)NC1=O [AQ1-Sar-Sar-Sar-Sar-Ser-Glu^γ-C13-COOH] | +6% | – | – |
| CC[C@H](C)[C@@H]1NC(=O)[C@H](C)NC(=O)[C@H]([C@@H](C)CC)NC(=O)[C@H](CCC(N)=O)NC(=O)[C@H](C)NC(=O)[C@H](CCCNC(=N)N)NC(=O)[C@H](C(C)C)NC(=O)[C@H](CC(C)C)NC(=O)[C@H](CCC(=O)O)NC(=O)[C@H](CCCNC(=N)N)NC(=O)CNC(=O)[C@@H](NC(=O)[C@H](CC(C)C)NC(=O)[C@H](CCCCN)NC(=O)[C@@H](NC(=O)[C@@H](NC(=O)[C@H](CCC(=O)O)NC(=O)[C@H](CCC(=O)O)NC(=O)[C@H](CCSC)NC(=O)[C@H](Cc2c[nH]c3ccccc23)NC(=O)[C@H](CO)NC(=O)[C@H](C)N)C(C)C)[C@@H](C)CC)CSSC[C@@H]2NC(=O)[C@@H](NC(=O)[C@H](CCCCN)NC(=O)[C@H](CC(N)=O)NC(=O)[C@H](C)NC(=O)[C@H](CC(C)C)NC(=O)[C@H](C)NC(=O)[C@H](CO)NC(=O)[C@H](Cc3ccc(O)cc3)NC(=O)[C@H](CC(C)C)NC(=O)[C@@H](N)Cc3ccc(C(C)=O)cc3)CSSC[C@H](NC(=O)CNC(=O)[C@H](C(C)C)NC(=O)[C@H](Cc3c[nH]cn3)NC2=O)C(=O)N[C@@H]([C@@H](C)O)C(=O)N[C@@H](CCCCN)C(=O)N[C@@H](CCCNC(=N)N)C(=O)N[C@@H](CO)C(=O)N[C@@H](CC(C)C)C(=O)N[C@@H](C)C(=O)N[C@@H](CCCNC(=N)N)C(=O)N[C@@H](Cc2ccccc2)C(=O)N[C@H](C(=O)O)CSSC[C@@H](C(=O)NCC(=O)N[C@@H](CCSC)C(=O)N[C@@H](CO)C(=O)N[C@H](C(=O)N[C@@H](Cc2c[nH]c3ccccc23)C(=O)N[C@@H](CO)C(=O)O)[C@@H](C)O)NC1=O [AQ1] | −17% | impaired renal blood flow | decreased renal blood flow |
